About 1,800 (2.5%) of roughly 71,000 compounds were called active. The inconclusive results got no clear call from the source; some entries with a clear call stand among them for comparison. Calls follow the shape of the dose curve; as a rule, active = well fitted activation curve with a large enough effect in the signal ratio, with a control signal flat (not every such curve was filed as active); inconclusive = small, poorly fitted or top-dose-only effect, or effect the other way, or a change in a side signal; inactive = flat fitted curve, though single readings scatter; the % refers to the signal ratio. Potencies beside an inconclusive call are fits to weak or partial responses and may not hold up.
Test: Cell signaling CRE-BLA (Fsk stim); as to activity change, negative = inhibition: % of control where 0% means no effect
Conditions: CHO CRE-bla reporter (cAMP response element driving beta-lactamase), forskolin EC10, beta-lactamase ratio; activity change, negative = inhibition: at 38.2 µM (top of the series) unless noted
Method in brief: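 Modulation of forskolin-driven signalling is measured in CHO cells carrying a CRE-controlled beta-lactamase reporter. Cells are stimulated with EC10 NKH 477 in the presence of titrated compound for 3 h at 37 °C, then loaded with CCF4 for 2 h at room temperature.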
Potency is read from the fitted curve at half-maximal effect; tags tell the direction and shape of the fitted curve.

Structure (SMILES)	activity change, negative = inhibition	Potency
CCc1nccn1S(=O)(=O)c1ccc(Br)cc1Br	inactive	–
O=C(Cn1c(=O)n(Cc2ccco2)c(=O)c2ccccc21)NCC1CCCO1 (stereo unspecified)	inconclusive: 12.6%	–
CCOC(=O)CSc1nnc(CNC(=O)c2ccccc2OC)n1-c1ccc(OC)cc1	inconclusive: 20%	–
O=C(Nc1nc(-c2ccncc2)cs1)C1COc2ccccc2O1 (stereo unspecified)	–	inconclusive: 12.6 µM [rising, partial curve]
CCCC(NC(=O)c1ccccc1)c1nc2ccccc2n1Cc1ccc(C(=O)OC)o1 (stereo unspecified)	inactive	–
CCC(=O)Nc1ccc(NC(=O)CSc2nnc(C(C)C)n2C)cc1	inactive	–
COc1cc2ccccc2cc1C(=O)Nc1ccc(N2CCN(C)CC2)cc1	–	inconclusive: 10 µM [rising, single point]
COc1ccc(OC)c(N=c2oc3c(OC)cccc3cc2C(=O)NCc2ccco2)c1	inactive	–
COc1ncc2nc(-c3cccs3)c(=O)n(C)c2n1	–	active: 3.16 µM
Cc1onc(-c2c(Cl)cccc2Cl)c1C(=O)N1CCc2ccccc21	inconclusive: -13.5%	–
O=C(CN1C(=O)C2C3C=CC(C3)C2C1=O)N1CC(=O)N(CCc2ccccc2)C(=O)C1 (stereo unspecified)	inconclusive: -13%	–
Cc1ccc2cc(CN(CC3CCCO3)S(=O)(=O)c3cccc4nsnc34)c(=O)[nH]c2c1 (stereo unspecified)	inactive	–
Cn1c(=O)c2c(nc(N3CCc4ccccc4C3)n2Cc2ccccc2F)n(C)c1=O	inconclusive: 9.13%	–
CC(C)c1ccc(NC(=O)CSc2nnc(-c3ccccn3)n2C)cc1	inconclusive: -17.3%	–
CC1(C)CC(CCNC(=O)c2ccc(-n3cnnn3)cc2)CC(C)(C)N1	inconclusive: -6.88%	–
CC(=O)C1=C(c2ccccc2)NC(=O)NC1c1ccccc1OCC#N (stereo unspecified)	inactive	–
Cc1cc(-n2c(C)cc(C(=O)CN3C(=O)NC4(CCCCC4C)C3=O)c2C)no1 (stereo unspecified)	inactive	–
CCn1nc(C(=O)Nc2ccc(S(=O)(=O)Nc3nccs3)cc2)c2ccccc2c1=O	–	inconclusive: 12.6 µM [rising, single point]
COc1ccc(CCN(Cc2cc3cc4c(cc3[nH]c2=O)OCO4)C(C)=O)cc1OC	–	inconclusive: 0.126 µM [falling, single point]
O=C(c1ccc2c(c1)OCO2)n1nnc2ccccc21	inconclusive: -18.2%	–
CC(C)NC(=O)N1CC2(CCN(C(=O)c3cc(C(F)(F)F)cc(C(F)(F)F)c3)CC2)C1	inactive	–
COc1ccccc1-c1cc(NCc2cccc(C)c2)ncn1	inconclusive: 27.1%	–
Cc1cc2ccccc2n1CCNC(=O)c1cccs1	inconclusive: -19.5%	–
C=C(C)COc1ccc(-c2[nH]ncc2-c2ccc(OC)c(OC)c2)c(O)c1	–	inconclusive: 5.01 µM [rising, partial curve]
CN1CCc2c(sc3nc(SCC(N)=O)n(-c4ccccc4)c(=O)c23)C1	–	inconclusive: 12.6 µM [rising, partial curve]

Structure (SMILES)	activity change, negative = inhibition	Potency
Cc1ccc(S(=O)(=O)c2cc3c(=O)n4cc(C)ccc4nc3n(CC3CCCO3)c2=N)cc1 (stereo unspecified)	inconclusive: 16.4%	–
N=c1n(CCO)c2ccccc2n1CCOc1ccccc1	inactive	–
CN1CCN(CCCNC(=O)c2cn(C3CCCCC3)c(=O)c3c2c2ccccc2n3C)CC1	inactive	–
COc1ccc(Cc2nnc(NC(=O)c3c(-c4ccccc4)noc3C)s2)cc1OC	–	inconclusive: 12.6 µM [rising, partial curve]
Cc1nc2ccccc2c2oc(C(=O)N3CCN(C(=O)c4ccco4)CC3)cc12	–	active: 12.6 µM
O=S(=O)(c1ccc2c(c1)OCCO2)N1CCC(c2nc3ccccc3s2)CC1	–	inconclusive: 5.01 µM [falling, single point]
COCCN1CC(O)=C(c2nc3ccccc3c(=O)[nH]2)C1=N	–	inconclusive: 5.01 µM [rising, partial curve]
COc1cc(C(=O)Nc2ccc(NC(=O)C3CC3)nc2)cc(OC)c1OC	–	inconclusive: 10 µM [rising, single point]
COc1ccc2cc3c(N)c(C(=O)N4CCCC4)sc3nc2c1	–	inconclusive: 10 µM [rising, partial curve]
CC(C)(CO)Cc1cc(C(C)(C)C)c(O)c(C(C)(C)C)c1	inconclusive: 23.8%	–
O=C(O)CN(CCN(CC(=O)O)CC(=O)O)CCN(CC(=O)O)CC(=O)O	inconclusive: 29.4% [at 17.1 µM]	inconclusive: 15.8 µM [rising, partial curve]
CCCC(c1nnnn1Cc1ccccc1)N1CCN(c2ccccc2OC)CC1 (stereo unspecified)	inactive	–
O=C(CN1CCC(n2nnc3cc(F)ccc32)CC1)Nc1ccccc1N1CCOCC1	–	inconclusive: 6.31 µM [rising, single point]
Cc1cc2c(cc1C)NC(c1c(C)n(C)n(-c3ccccc3)c1=O)C1=C(CC(C)(C)CC1=O)N2 (stereo unspecified)	inconclusive: -24.2%	–
Cc1c(C(=O)OC2CCCCC2)sc2nc[nH]c(=O)c12	–	inconclusive: 2 µM [rising, partial curve]
COc1ccccc1N1CCN(Cc2nc3ccccc3c(=O)n2CC(C)=O)CC1	inconclusive: -1.45%	–
CC(C)(C)NS(=O)(=O)c1cccc(S(=O)(=O)c2cccc(S(=O)(=O)NC(C)(C)C)c2)c1	inconclusive: 9.58%	–
CC(C)CCn1cnc2c(cnn2-c2ccc(Cl)cc2)c1=O	inactive	–
Cc1ccccc1-n1c(SCc2cc(=O)n3ccccc3n2)nc2[nH]ncc2c1=O	–	active: 2 µM
CC(C)C1O/C(=N/C(=O)Nc2ccc(Cl)c(Cl)c2)NC1=O (stereo unspecified)	inactive	–
Cc1cc(C)c(C#N)c(SCS(=O)Cc2ccc(Cl)cc2)n1 (stereo unspecified)	–	inconclusive: 12.6 µM [rising, partial curve]
Cc1nc2ccccc2c(=O)n1/N=C/c1ccncc1	inactive	–
COC(=O)c1ccc(C2/C(=C(/O)c3ccc(OC)cc3)C(=O)C(=O)N2CC2CCCO2)cc1 (stereo unspecified)	inconclusive: -10.7%	–
CCc1nc2ccccc2c(=O)n1NC(=O)c1c(O)c2ccccc2[nH]c1=O	inactive	–
O=C(CCCC1=NS(=O)(=O)c2ccccc2N1)N1CCN(c2ccc(Cl)cc2)CC1	–	inconclusive: 31.6 µM [falling, single point]
